In PubChem BioAssay AID1454 (National Center for Advancing Translational Sciences (NCATS), 2008):
The whole screen tested about 130,000 compounds, of which about 550 (0.42%) were called active. Inconclusive means that the source gave no clear call. Such entries were picked first, then a sample of the others. Calls follow the shape of the dose curve; as a rule, active = well fitted inhibition curve with a large enough effect; inconclusive = small, poorly fitted or top-dose-only effect, or effect the other way; inactive = flat fitted curve, though single readings scatter. Potencies of inconclusive entries are left out as doubtful fits.

Experiment: qHTS Assay for Inhibitors of the ERK Signaling Pathway using a Homogeneous Screening Assay; Stimulation with EGF; also: nearly all actives have a fitted effect of over 55% in size;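 as to activity change, negative = inhibition: plate controls were stimulated vehicle wells for no effect and unstimulated vehicle basal for full effect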
Settings: HEK293-V1b, EGF-stimulated phospho-ERK AlphaScreen; activity change, negative = inhibition: at the top concentration
From the text: NIH Chemical Genomics Center [NCGC]
NIH Molecular Libraries Screening Centers Network [MLSCN]
Assay Submitter (PI): Dr. Wei Zheng, NCGC/NIH
The Ras/extracellular-signal-regulated kinase (ERK) mitogen activated protein (MAP) kinase signaling pathway (ERK1/2 cascade) plays a key role in transmitting signals from the cell surface to the nucleus (Nishida and Gotoh 1993; Chang and Karin, 2001). The cascade is initiated by the small G-protein Ras, which recruits Raf from the cytosol, where activation occurs. Alternatively, this pathway can be activated by elevating intracellular cAMP, or by activation of a receptor tyrosine kinase as epidermal growth factor receptor.
Activation of the ERK pathway is essential in increased cell division and cell survival. Sustained and constitutive activation of the ERK pathway, however, has been linked to uncontrolled cell proliferation, increased cell survival, and tumor progression. Thus, the ERK has been as an attractive target for cancer chemotherapy in the past few years (Sebolt-Leopold and Herrera, 2004). Given its physiological and pathological importance, assessment of ERK phosphorylation has been broadly performed in both basic research and drug discovery. Most assays for the measurement of ERK phosphorylation use the antibody-based detection methods, such as western blot and ELISA. These assays require multiple reagent additions with cell wash steps and are not suitable for high throughout screening.
The current cell-based ERK phosphorylation assay was performed using AlphaScreen platform. AlphaScreen is a two bead-based proximity-dependent chemical energy transfer luminescent assay platform. The assay reagents (ERK SureFire(TM) kit) were supplied from TGR BioSciences (Australia). In the presence of specific antibodies, phosphorylated ERK will bring "donor" and "acceptor" beads to a proximity range (<200 nm), and subsequently lead a chemical luminescent reaction upon exciting donor beads with 680 nm laser. To exclude the assay-related false positives, we used a biotinylated rabbit IgG to perform counter-screen. The biotinylated antibody mimics the phosphorylated ERK1/2 for bringing streptavidin coated beads and protein-A coated beads to a proximity range for the AlphaScreen detection.
NCGC Assay Protocol Summary:
HEK293 cells stably expressing type-1 vasopressin receptor (V1b) were maintained in DMEM medium (Invitrogen, Carlsbad, CA) at 37C under a humidified atmosphere containing 5% CO2 and 95% air. The medium contained 10% FBS, 2 mM L-glutamine, non-essential amino acid, pyruvate and 50 U/ml penicillin and 50 ug/ml streptomycin (Invitrogen). The aliquots of frozen cells were stored at -135C and used for the compound screening. All compounds were screened as titrations from 0.6 nM to 46 uM final concentration. Epidermal growth factor (EGF) was used to stimulate the ERK phosphorylation pathway. The ERK phosphorylation in cells was determined using an AlphaScreen assay kit provided by […]. Data were normalized to the controls for basal activity (DMSO only) and 100% activation (25 nM EGF). AC50 values were determined from concentration-response data modeled with the standard Hill equation.
(1) Seed 4 ul/well of resuspended frozen HEK293 cells containing 2000 cells in white 1536-well plates for overnight with 1% FBS at 37C under a humidified atmosphere containing 5% CO2 and 95% air.
(2) Add 23 nL compounds in DMSO solution. The final titration was 0.6 nM to 46 uM.
(3) Incubate at 37C for 30 min.
(4) Dispense 0.5uL EGF (25 nM in final)
(5) Incubate at 37C for 5 min.
(6) Dispense 0.5uL of 1:2 diluted 5x lysis buffer.
(7) Incubate at 37C for 10 min.
(8) Dispense 1.5uL of mixture of activation buffer and reaction buffer with AlphaScreen beads (streptavidin donor beads and protein-A acceptor beads, 10 ng/well for each).
(9) Incubate at room temperature for 5 hr.
(10) Detect the assay plate in an EnVision plate reader (PerkinElmer) using the AlphaScreen detection mode.
[…]
Potency is read from the fitted curve at half-maximal effect; tags tell the direction and shape of the fitted curve.

Row | SMILES | Potency | activity change, negative = inhibition
1 | Nc1n[nH]c(N)c1N=Nc1ccc(Cl)cc1 | inconclusive [inhibitor, single point] | 
2 | CCNC(=S)N(CCc1c(C)[nH]c2ccc(Cl)cc12)Cc1ccco1 | inconclusive [inhibitor, single point] | 
3 | O=c1[nH][nH]cc1C=Nc1ccc(Cl)cc1Cl |  | inactive: -3.13%
4 | Nc1nc2ncc(=O)[nH]c2c(=O)[nH]1 |  | inactive: 8.8%
5 | O=C(Cc1cccc2ccccc12)N1CC[C@@]2(O)CCCC[C@H]2C1 | inconclusive [inhibitor, full curve, poor fit] | 
6 | Cc1cc(Cl)c(S(=O)(=O)N2CCN(c3ccccn3)CC2)cc1OCC(=O)NC1CCCCC1 | inconclusive [inhibitor, partial curve, poor fit] | 
7 | CC(C)CN1CCC2(CC1)CCN(C(=O)c1cc(C(F)(F)F)cc(C(F)(F)F)c1)CC2 |  | inactive: 0.568%
8 | COc1ccc(/C=C/C(=O)NCC(c2ccc(F)cc2)N2CCOCC2)cc1OC (centres undefined) | inconclusive [activator, full curve, poor fit] | 
9 | N#CCCCS(=O)(=O)c1nnnn1C1CCCCC1 |  | inactive: 2.35%
10 | O=C(N/N=C/c1ccccc1[N+](=O)[O-])c1ccc2c(c1)OCCO2 |  | inactive: -4.11% [at 57.5 µM]
11 | C=C[C@@]1(C)CC[C@H](O)[C@H]2C(=O)CCC[C@@H]21 |  | inactive: -3.55%
12 | CCn1c2ccc(F)cc2c2nc3ccccc3nc21 | inconclusive [activator, single point] | 
13 | CCOc1ccc2nc(SCc3ccc(OC)cc3)sc2c1 | inconclusive [activator, single point] | 
14 | COc1ccc(-n2cnc3scc(-c4ccccc4)c3c2=O)cc1 | inconclusive [activator, partial curve, poor fit] | 
15 | CNC(=S)N1N=C(c2ccc(Br)cc2)CC1c1ccc(N(C)C)cc1 (centres undefined) | inconclusive [inhibitor, partial curve] | 
16 | Cc1ccc(CNCC(O)(c2ccccc2)c2ccc(Cl)cc2)cc1 (centres undefined) | inconclusive [inhibitor, single point] | 
17 | CCc1cccc2nc3c(c([Si](CC)(CC)CC)c12)Cn1c-3cccc1=O | inconclusive [inhibitor, single point] | 
18 | CC(=O)/C(N=Nc1ccc2c(c1)OCCO2)=C(\C)O | inconclusive [inhibitor, partial curve] | 
19 | O=C(N/N=C/c1cc2cc3c(cc2nc1Cl)OCCO3)c1ccccc1O | inconclusive [inhibitor, single point] | 
20 | CC(C)=CCN1CCN(Cc2cnc(N3CCOCC3)s2)CC1CCO (centres undefined) | inconclusive [inhibitor, single point] | 
21 | CC(C)(C)C(=O)NC(=S)Nc1ccccc1N1CCCC1 | inconclusive [activator, partial curve] | 
22 | CCOc1ccc(CN2CCN(Cc3cnc(-c4ccccc4)s3)CC2CCO)cc1 (centres undefined) | inconclusive [activator, full curve, poor fit] | 
23 | CN1CCN(C(=S)c2ccc(-c3cc(Cl)ccc3Cl)o2)CC1 | inconclusive [inhibitor, single point] | 

Row | SMILES | Potency | activity change, negative = inhibition
24 | COc1ccccc1N(C)S(=O)(=O)c1ccc(C(=O)NC(C)c2ccccc2)cc1 (centres undefined) | inconclusive [inhibitor, full curve] | 
25 | Cc1cccnc1NC1(C(F)(F)F)N=C2SCCN2C1=O (centres undefined) | inconclusive [inhibitor, partial curve] | 
26 | OCC1OC(n2cnc3c(=S)nc[nH]c32)C(O)C1O (centres undefined) |  | inactive: 16.1%
27 | Nc1nc2c(nc(Sc3ccc(Cl)cc3)n2C2OC(CO)C(O)C2O)c(=O)[nH]1 (centres undefined) |  | inactive: 24.6%
28 | C[C@H](NC(=O)/C(C#N)=C/c1ccc(O)c(O)c1)c1ccccc1 | inactive | 
29 | Cc1cccc2nc(CSc3nc4ccc([N+](=O)[O-])cc4[nH]3)c(Br)n12 | inconclusive [inhibitor, single point] | 
30 | CN1CCN(CCCNC(=O)c2ccc(/C=C3\Sc4ccccc4N(Cc4ccccc4F)C3=O)cc2)CC1 | inconclusive [inhibitor, single point] | 
31 | Cc1cc(CN(C)Cc2ccc(OCC(O)CN(C)Cc3ccccc3)cc2)on1 (centres undefined) | inconclusive [inhibitor, partial curve, poor fit] | 
32 | CCCCC1=NC2(CCCC2)C(=O)N1Cc1ccc(-c2ccccc2-c2nn[nH]n2)cc1 | inconclusive [inhibitor, single point] | 
33 | CCN(CC)C(=O)c1ccc2c3c(cccc13)C(=O)N(CCc1ccc(OC)c(OC)c1)C2=O | inconclusive [inhibitor, single point] | 
34 | COC(=O)N/N=C/c1cc(C)n(-c2ccc(Br)cc2)c1C | inconclusive [inhibitor, single point] | 
35 | COc1ccc(-c2csc(NC(=O)c3ccc(S(C)(=O)=O)cc3)n2)cc1 |  | inactive: -9.89%
36 | N#Cc1cc2c(nc1SCc1ccc(Cl)cc1)CCCC2 | inconclusive [activator, single point] | 
37 | CCOc1ccc(CN2CCN(Cc3ccc(C)o3)CC2CCO)cc1 (centres undefined) | inconclusive [activator, partial curve] | 
38 | N#Cc1ccccc1OC[C@H](O)CNCCNC(=O)Nc1ccccc1 |  | inactive: -0.489%
39 | COc1cc2c(cc1OC)C(SC)=NC1(CCCC1)C2 | inconclusive [inhibitor, partial curve, poor fit] | 
40 | O=c1[nH][nH]c2c(N=Cc3ccccc3O)ccc(F)c12 | inconclusive [inhibitor, full curve] | 
41 | Cc1ccc(S(=O)(=O)/N=C2/C=C(Sc3ncn[nH]3)C(=O)c3ccccc32)cc1 | inconclusive [inhibitor, single point] | 
42 | O=C(CSc1ccc(-c2ccc(F)cc2)nn1)N1CCCc2ccccc21 | inconclusive [inhibitor, single point] | 
43 | CN(CCc1cn[nH]c1)C(=O)CC1C(=O)NCCN1Cc1cccc(Oc2ccccc2)c1 (centres undefined) |  | inactive: -15.3%
44 | CCOC(=O)c1c(-c2ccccc2)csc1NC(=O)CSc1nc(N)cc(N)n1 | inconclusive [inhibitor, single point] | 
45 | O=[N+]([O-])c1ccc(NC2CCN(Cc3ccccc3)CC2)c([N+](=O)[O-])c1 | inconclusive [inhibitor, single point] | 
46 | O=c1c(-c2ccc(F)cc2)nc2cnc(Nc3ccccc3)nc2n1Cc1cccs1 |  | inactive: 8.94%

Row | SMILES | Potency | activity change, negative = inhibition
47 | CC1Cc2ccccc2N1C(=S)Nc1cccc(S(=O)(=O)N(C)C)c1 (centres undefined) | inconclusive [inhibitor, full curve] | 
48 | Cc1cccc(NC(=S)NC2CCCC2)n1 | inconclusive [inhibitor, single point] | 
49 | CN(C)c1ccc(/C=C2\N=C(c3ccc(Cl)c([N+](=O)[O-])c3)NC2=O)cc1 | inconclusive [inhibitor, partial curve] | 
50 | COc1cccc([C@@H]2Oc3ccc(Br)cc3C[C@H]2OC(=O)Nc2ccc(C)c(Br)c2)c1 |  | inactive: -4.96%
51 | N#Cc1cccc(-c2cncnc2-n2ccnc2)c1 |  | inactive: 20.5%
52 | Cc1ccccc1C(=O)Nc1ccc(N2CCCCCC2)cc1 | inconclusive [inhibitor, single point] | 
53 | Cc1ccc(Sc2ncccc2COC(=O)NC(C)C)cc1 |  | inactive: -3.62%
54 | COc1ccc(OCc2cc(C(=O)O)c(C)o2)cc1 |  | inactive: 7.1% [at 57.5 µM]
55 | Cn1cccc1C(=O)N1CCC[C@@]2(CCN(c3ccccc3)C2)C1 | inconclusive [inhibitor, single point] | 
56 | CC1=C/C(=N\OS(=O)(=O)c2ccccc2)C(C(C)C)=CC1=O | inconclusive [inhibitor, single point] | 
57 | O=C(c1cnccn1)N1CCC2(CCCN(c3cccc(-c4ccccc4)c3)C2)CC1 |  | inactive: 20.8%
58 | COc1ccc(-n2c(=O)c(-c3cccs3)nc3cnc(N4CCNCC4)nc32)cc1 | inconclusive [activator, single point] | 
59 | c1ccc2c(CCNc3ncnc4nc[nH]c34)cccc2c1 | inconclusive [inhibitor, single point] | 
60 | CCCOc1ccc(C(=O)Nc2ccc(S(=O)(=O)Nc3cc(C)nc(C)n3)cc2)cc1 |  | inactive: 5.53% [at 57.5 µM]
61 | CC1(C)CC(=O)c2cc(NC(=O)c3ccc(F)cc3)c(=O)oc2C1 |  | inactive: -12.5%
62 | Cc1ccc(-c2n[nH]c(=O)c3ccccc23)cc1S(=O)(=O)NC(C)(C)C | inconclusive [activator, partial curve] | 
63 | COc1cc(/C=C2\SC(=S)N(NC(=O)c3ccncc3)C2=O)ccc1O | inconclusive [inhibitor, partial curve, poor fit] | 
64 | CC(=O)Nc1ccc(O)c(-c2nc3ccccc3s2)c1 |  | inactive: -9.02%
65 | CCOC(=O)c1cc2c(ccn2-c2ccc(F)cc2)n1CC(=O)N(CC)CC | inconclusive [inhibitor, single point] | 
66 | O=C1C2C(c3ccccc3)=NN(c3ccccc3)C2C(=O)N1c1ccccc1 (centres undefined) | inconclusive [activator, partial curve] | 
67 | COc1ccc(Nc2nc(-c3cccs3)nc3ccccc23)c(OC)c1 | inconclusive [activator, single point] | 
68 | Nc1nn(-c2ccccc2)c(N)c1N=Nc1cccc(F)c1 | inconclusive [inhibitor, single point] | 
69 | Cc1ccc(NC2=C/C(=N/S(=O)(=O)c3cccs3)c3ccccc3C2=O)cc1 | inconclusive [inhibitor, full curve] | 
